# Laboratory results taken from PubChem BioAssay AID1345083 (National Center for Advancing Translational Sciences (NCATS), 2018).
# Several values for one entry are separate records, joined by “and”; a condition that tells them apart may be missing. Equal values may be shown once. About 6,200 (6.6%) of roughly 94,000 compounds were called active. The shares of active, inactive and inconclusive entries below differ from those in the screen. Calls come from the whole dose curve; as a rule, active = well fitted inhibition curve with a large enough effect; inconclusive = small, poorly fitted or top-dose-only effect; inactive = flat fitted curve, though single readings scatter. A potency beside an inconclusive call is a rough fit, not a confirmed value.
# Assay: Cytotoxic Profiling in HEK 293 Cell Line of Diverse Libraries Using Quantitative High-Throughput Screening; note: nearly all actives have a fitted effect of over 60% in size
# Settings: HEK 293 viability, ATP luminescence (CellTiter-Glo), 48-72 h; activity change, negative = cytotoxicity: at 115 µM (top of the series) unless noted; series mostly up to 115 µM
# Outline: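 Viability of HEK 293 cells, plated at 250 cells/well, was judged by cellular ATP after compound treatment for 48 or 72 hr. Luminescence was imaged 10 min after CellTiter-Glo addition at room temperature.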
# % is set by controls: 0 for no effect and ±100 for the full control effect; potency is the fitted concentration of half-maximal effect; tags give direction and shape of the fitted curve.
Compound,Potency,"activity change, negative = cytotoxicity",outcome
O=C(CCC1CCCC1)N1CCC(c2noc(COc3ccc(F)cc3)n2)C1 (stereo not drawn),active: 44.7 µM,,
Cc1ccc(OCC(=O)c2ccc3c(c2)N(CCCC(=O)N2CCCC2)C(=O)CO3)cc1C,"inconclusive: 56.2 µM [inhibitor, partial curve, poor fit]",,
O=C(CCc1ccc(F)cc1)c1ccc2nnc(-c3cncc(Cl)c3)n2c1,"inconclusive: 20 µM [inhibitor, full curve, poor fit]",,
Cc1cn2nc(C(=O)Nc3ccc(C(F)(F)F)cc3)cc2c(N2CCSCC2)n1,,inactive: -25.8%,
Cc1cc(C(=O)N2CC(F)(F)C[C@H]2c2nc(C)no2)on1,,inactive: 3.16%,
COc1cccc(C(=O)NCCNC(=O)c2cccc(-c3ccc(C(F)(F)F)cc3)c2)c1,,inactive: -20.8%,
COc1ccc(-c2cc(N3CCCC(NC(=O)c4cc(Cl)ccc4F)C3)n[nH]2)cc1 (stereo not drawn),"inconclusive: 50.1 µM [inhibitor, partial curve, poor fit]",,
O=C(C1CCN(C(=O)N2CC3CC(C2)[C@H]2CCCC(=O)N2C3)CC1)N1CCOCC1 (stereo partly drawn),,inactive: 13.3%,
COCCC(=O)Nc1cccnc1OC1CCN(C)C1 (stereo not drawn),,inactive: -2.66%,
COc1ccc(-c2nn(-c3ccccc3C)cc2CN2CCCC2c2nonc2C)cc1F (stereo not drawn),"inconclusive: 35.5 µM [inhibitor, full curve]",,
O=C(c1cc(F)ccc1Cl)N1CCN(c2cc(-c3ccc(F)cc3)[nH]n2)CC1,"inconclusive: 28.2 µM [inhibitor, partial curve, poor fit]",,
Fc1ccccc1-c1noc2c1CN(Cc1cccn1-c1nccs1)CC2,"inconclusive: 89.1 µM [inhibitor, single point]",,
CC(C)CNC(=O)C(NC(=O)c1ccccc1Cl)C1CCN(C(=O)c2ccccc2F)CC1 (stereo not drawn),,inactive: 2.86%,
Cn1cc(-c2ccc3c(n2)CN(Cc2ccc(F)cc2)C(=O)CO3)cn1,"inconclusive: 89.1 µM [inhibitor, partial curve]",,
COCCNC(=O)c1ccc2c(c1)OCCN(c1ccccc1)C2,"inconclusive: 17.8 µM [inhibitor, full curve, poor fit]",,
Cc1ccc([S+](=O)([O-])N2CCC(c3nn(-c4ccccn4)c(=O)[nH]3)CC2)cc1,"inconclusive: 79.4 µM [inhibitor, partial curve, poor fit]",,
CN1C(=O)C2(CCN(Cc3ccsc3)C2)c2ccccc21 (stereo not drawn),"inconclusive: 100 µM [inhibitor, partial curve, poor fit]",,
CN1C(=O)C2(CCN([S+](=O)([O-])c3cccs3)C2)c2ccccc21 (stereo not drawn),"inconclusive: 89.1 µM [inhibitor, single point]",,
COc1ccccc1-c1cccc(CN2CCCC(C(=O)Nc3ccccc3F)C2)c1 (stereo not drawn),"inconclusive: 50.1 µM [inhibitor, partial curve, poor fit]",,
COc1ccc(CC(=O)N2Cc3[nH]cnc3C[C@H]2c2nc(-c3ccc4ccccc4c3)no2)cc1,"inconclusive: 89.1 µM [inhibitor, single point]",,
CCOCCNC(=O)CNC(=O)c1cccc(-c2cc(F)ccc2OC)c1,,inactive: -19.9%,

Compound,Potency,"activity change, negative = cytotoxicity",outcome
COc1ccc(-c2nc3c(c(-c4ccccc4)n2)CN(C(=O)c2ccc(F)cc2)CC3)cc1,"inconclusive: 17.8 µM [inhibitor, full curve, poor fit]",,
O=C(Nc1ccc(F)cc1F)N[C@H]1C[C@H]2C(=O)NC[C@@H](CCC(=O)N3CCc4ccccc43)N2C1,,inactive: 3.62%,
O=C(c1cn[nH]c1)N1CC2(CN(Cc3cccc(Cl)c3)CC2COc2ccccc2)C1 (stereo not drawn),"inconclusive: 70.8 µM [inhibitor, partial curve, poor fit]",,
O=c1cc(-c2cccnc2)oc2c(-c3ccccc3Oc3ccccc3)nccc12,active: 100 µM,,
COc1ccc(CN2CC(Oc3ccc(F)cc3F)C2)cc1,"inconclusive: 126 µM [inhibitor, single point]",,
C[C@H]1[C@@H]2[C@@H](O)C([C@H](C)C(=O)NCc3cc(F)cc(F)c3)CC[C@@]2(C)CC[C@@H]1NC(=O)c1ccccn1 (stereo partly drawn),"inconclusive: 50.1 µM [inhibitor, partial curve]",,
Cn1c2c(c3ccccc31)CN(C(=O)c1ccccc1)CC2,"inconclusive: 50.1 µM [inhibitor, partial curve, poor fit]",,
O=C(NCc1ccccc1)C1=NO[C@@H]2CN(Cc3cccc(F)c3F)C[C@H]12,"inconclusive: 126 µM [inhibitor, single point]",,
O=C(Nc1cccc(C(F)(F)F)c1)O[C@@H]1CO[C@H]2[C@@H]1OC[C@@H]2Nc1nccc(-c2ccc(-c3ccccc3)cc2)n1,,inactive: -23.7%,
O=C(NCC1Cn2cccc2CN1Cc1ccccc1)NC1CCCCC1 (stereo not drawn),"inconclusive: 89.1 µM [inhibitor, single point]",,
Cc1cccc(C(=O)N2CCC3(CC2)CC(N(Cc2ccc(F)cc2)C2CC2)CCO3)c1 (stereo not drawn),"inconclusive: 50.1 µM [inhibitor, partial curve, poor fit]",,
COc1ccc(-c2ccnc3nc(C(C)C)nn23)cc1,"inconclusive: 10 µM [inhibitor, full curve, poor fit]",,
Cc1ccccc1C(=O)N1CCN(C(=O)c2cccc(-c3ccccn3)c2)CC1,"inconclusive: 56.2 µM [inhibitor, partial curve, poor fit]",,
COc1ccc(-c2cccc(C(=O)N3CCN(C(=O)Cc4cccc(Cl)c4)CC3)c2)nn1,"inconclusive: 50.1 µM [inhibitor, partial curve, poor fit]",,
Cc1ccccc1-c1cnc2[nH]cc(CC(=O)NCCN(C)C)c2c1,active: 39.8 µM,,
COc1ccc2c(c1)OCC(C(=O)NCc1nc3c(s1)CCCC3)C2 (stereo not drawn),"inconclusive: 50.1 µM [inhibitor, partial curve, poor fit]",,
Cc1cnc(CCNC(=O)c2n[nH]c3ccccc23)n1C1CCCC1,"inconclusive: 89.1 µM [inhibitor, single point]",,
CN1C[C@@H](NC(=O)CCC(=O)O)C[C@H]1c1nc(-c2ccc3ccccc3c2)no1,,inactive: -5.68% [at 172 µM],
COc1ccc(-c2ccccc2C(=O)N2CCCC(C)C2)nn1 (stereo not drawn),,inactive: -7.22% [at 172 µM],
O=C1CC2(CCN(Cc3ccncc3)CC2)Oc2ccccc2N1c1ccccc1,"inconclusive: 50.1 µM [inhibitor, partial curve, poor fit]",,
O=C(NCc1ccccc1-n1cncn1)C1CC(=O)N(Cc2ccccn2)C1 (stereo not drawn),,inactive: -7.73%,

Compound,Potency,"activity change, negative = cytotoxicity",outcome
COc1ccc(-n2nc(C3CCCN(C(=O)c4ccccc4)C3)[nH]c2=O)cc1 (stereo not drawn),,,inactive
COc1ccc(CC(=O)N2CCc3cn(C)c4cccc(c34)C2)cc1,"inconclusive: 31.6 µM [inhibitor, full curve]",,
COc1ccc(-c2cc(C(=O)Nc3ccccc3F)c3cnn(C)c3n2)cc1,"inconclusive: 44.7 µM [inhibitor, partial curve]",,
O=C(Cc1c(F)cccc1Cl)N1C[C@@H](CO)[C@H](c2ccccn2)C1,,inactive: -4.04%,
COc1ccc2c(c1)C(COCc1ccc(S(C)(=O)=O)cc1)CC(C)(C)O2 (stereo not drawn),"inconclusive: 22.4 µM [inhibitor, full curve]",,
COc1ccccc1-c1onc(C)c1C(=O)NCCC(c1ccccc1)c1ccccc1,active: 25.1 µM,,
COc1ccc(-c2cc(N3CCC(NC(=O)c4ccccn4)C3)n[nH]2)cc1 (stereo not drawn),"inconclusive: 70.8 µM [inhibitor, partial curve, poor fit]",,
COC(=O)[C@@H]1Cc2ncn(C(C)C)c2CN1C(C)=O,,inactive: -4.34% [at 230 µM],
CNC(=O)[C@@H]1CN(Cc2ccc(OC)c(OC)c2Cl)C[C@H]1CO,,inactive: -18.4%,
O=C(NCCn1ccn2nc(-c3ccc(F)cc3)cc2c1=O)c1ccco1,"inconclusive: 35.5 µM [inhibitor, full curve, poor fit]",,
CN(Cc1cccc(C(F)(F)F)c1)Cc1cccs1,,,inactive [at 172 µM]
COc1ccc(CC(=O)N2CCCN(c3cc(-c4ccccc4)[nH]n3)CC2)cc1,"inconclusive: 50.1 µM [inhibitor, partial curve, poor fit]",,
CCn1cc(-c2cc3c(cn2)CN(CCc2ccccc2)CCN3)cn1,"inconclusive: 89.1 µM [inhibitor, partial curve, poor fit]",,
O=C(COc1ccc(F)cc1)NC1CCN(c2cc(-c3ccccc3)[nH]n2)CC1,"inconclusive: 56.2 µM [inhibitor, partial curve, poor fit]",,
Cc1ccc([S+](=O)([O-])N2CCC[C@@H]2C(=O)N2CCC(N3CCOC3=O)CC2)cc1,,,inactive
Cc1nnc2n1CCC(N(C)C(=O)NCc1ccco1)CC2 (stereo not drawn),"inconclusive: 89.1 µM [inhibitor, single point]",,
O=C(COc1ccc(F)cc1)N1CCC(N2C(=O)C3(CCCC3)C2c2ccccc2)CC1 (stereo not drawn),"inconclusive: 50.1 µM [inhibitor, partial curve, poor fit]",,
COCCNC(=O)CCCN1C(=O)COc2ccc(C(=O)COc3cc(C)cc(C)c3)cc21,"inconclusive: 89.1 µM [inhibitor, single point]",,
O=C(c1ccncc1)N1CC2CCC(C1)N2Cc1ccc(-c2ccccc2)cc1,"inconclusive: 39.8 µM [inhibitor, partial curve, poor fit] and inconclusive: 8.91 µM [inhibitor, full curve, poor fit]",,
CC1(c2ccccc2)N(Cc2cccnc2)C(=O)OC12CCN(Cc1ccc(F)cc1)CC2 (stereo not drawn),"inconclusive: 56.2 µM [inhibitor, partial curve, poor fit]",,
COCCN(C)C[C@@H]1CN(C(=O)c2ccc(=O)n(C)c2)C[C@@H]1CO,,inactive: -10.4%,
